Measured values reported in the supplement of paper PMC10338343.
± gives the standard deviation. Only a part is listed here, and it is no random draw.

Tested on: MIWI (PIWIL1) piRISC loaded with piRNA #1 (30 nt)
Experiment: pre-steady-state target cleavage rate (min^-1); MIWI and MILI are mouse PIWI proteins and EfPiwi is from a freshwater sponge; tags in brackets are library labels; higher = faster piRNA-guided slicing of the target
Settings: guide: piRNA #1 5'p-UGAGGUAGUAGGUUGUAUAGUAUCCAGAGG; auxiliary factor: 500 nM mouse GTSF1
In short: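 The pre-steady-state cleavage rate came from a burst-and-steady-state fit to pooled data from three Cleave-'n-Seq trials, in which uncleaved targets were sequenced and normalised to depth and to weakly complementary targets. Each reaction held 0.1 nM transcribed, DNA-blocked target RNA library and 1 nM active affinity-purified piRISC carrying one synthetic guide, with or without 500 nM GTSF1 partner protein, in HEPES–potassium acetate buffer at 33 °C for 0–8 or 0–960 min. k3 was capped at 0.0001 min^-1.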

Row | Sequence | pre-steady-state target cleavage rate
1 | GGUCUGCAUACUAUACAACCUAGUACCUCA | 0.551 ± 0.054
2 | GGAGACCUAUGUUAUACAACCUACUACCUCA | 0.996 ± 0.11
3 | GCUCUGGAUACUAAUGAACCUACUACCUCA | 0.437 ± 0.051
4 | GCUCUGGAUACUUUACAAGCUACUACCUCA | 1.23 ± 0.064
5 | CCUCUGGAUACUAUACAACCUACUACGACA | 1.15 ± 0.087
6 | GGAGACCUAUCUAAACAACCUACUACGUCA | 0.0476 ± 0.011
7 | GGUCUCGAUACUAUACAACCUACUACGUCA | 0.675 ± 0.062
8 | GGACUGGAUACUAUACAACCAAGUACCUCA | 0.0216 ± 0.004
9 | CCUCUGGAUACUAUACAAGCCUACUACCUCA | 0.013 ± 0.006
10 | GGAGAGGAUACUAUACAAGGAACUACCUCA | 0.00447 ± 0.0029
11 | GGACUGGAUACUAUACAAGCUACUAGCUCA | 0.0867 ± 0.019
12 | GGAGAGGAUACUAGACAACCUACUACCUCA | 0.565 ± 0.037
13 | CCUCUGGAUUCUAUACAACCUACUACCUGA | 0.501 ± 0.076
14 | GGAGACCUAUCUAUACUACCUACUACCACA | 0.0517 ± 0.013
15 | GGAGACGAUACAAUACAAGCUACUACCUCA | 0.774 ± 0.057
16 | GGAGUGGAUACUAUACAACCUACUACCCCA | 0.544 ± 0.081
17 | GGAGACCUAUCUAUACAUCCUACUUCCUCA | 0.0462 ± 0.011
18 | GGAGUGGAUACUAUACAACGUACUUCCUCA | 0.127 ± 0.022
19 | GGACUGGCUACUAUACAACCUACUACCUCA | 1.7 ± 0.12
20 | GGUCUGGAUACUAUACUACCUACUAGCUCA | 0.391 ± 0.048

Row | Sequence | pre-steady-state target cleavage rate
21 | CCUCUGGAUACUAUACGACCUACUACCUCA | 1.52 ± 0.086
22 | CCUCUGGAUACUAUACAACCUACUUCGUCA | 0.551 ± 0.05
23 | GCUCUGGAUACUAUUCAACGUACUACCUCA | 1.15 ± 0.079
24 | CCUCUGGAUACUAUACAACCAACUACCACA | 0.188 ± 0.024
25 | GGAGACGAUACUAUUCAAGCUACUACCUCA | 0.859 ± 0.048
26 | CCUCUGGAUACUAUAGAACCUACUACCUCA | 0.664 ± 0.06
27 | GGAGUGGAUACUAUACAAGGAACUACCUCA | 0.0048 ± 0.0021
28 | GGAGACCUAUGAUAUGUUGGUACUACCUCU [g2:g10:cont:t1U] | < 0.0001
29 | CCUCUCGAUACUAUACAACCUAGUACCUCA | 0.406 ± 0.047
30 | GGAGACGAAACUAUACAACCUACUACGUCA | 0.691 ± 0.072
31 | CGACUGGAUACUAUACAACCUACUACCUCA | 1.99 ± 0.12
32 | GGAGACCAUACUAUACUACCUUCUACCUCA | 0.15 ± 0.016
33 | GGAGACCUAUGUAUACAACCUACUACCAUCA | 0.0683 ± 0.0095
34 | GGAGACCUUACUAUUCAACCUACUACCUCA | 1.19 ± 0.096
35 | GGAGACCUAACUAUAGAACCUACAACCUCA | 0.00664 ± 0.0031
36 | GGAGUGGAUACUAUACAACGUACAACCUCA | 0.411 ± 0.04
37 | GGAGUGGAUUACUAUACAACCUACUACCUCA | 1.55 ± 0.1
38 | GGAGACCAUAGUAUACAUCCUACUACCUCA | 0.344 ± 0.036
39 | GGUGUGGAUACUAUACAACCUACUACCUCA | 1.8 ± 0.092
40 | GGAGACCAUACUAUACAACCAUGUACCUCA | < 0.0001
